According to the RNAGym collection of RNA variant scans (doi:10.1073/pnas.2313332121):
This sample is rich in variants without activity.

B1: TPR 5TU (parent)
chain: GGAUCUUCUCGAUCUAACAAAAAAGACAAAUCUGCCACAAAGCUUGAGAGCAUCUUCGGAUGCAGAGGCGGCAGCCUUCGGUGGCGCGAUAGCGCCAACGUUCUCAACUAUGACACGCAAAACGCGUGCUCCGUUGAAUGGAGUUUAUCAUG

Variants of: B1
Test: polymerase ribozyme fitness, log enrichment relative to wild type (log ratio); higher = more active; in vitro selection for triplet polymerase activity
Procedure, shortened: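 Each subunit of a heterodimeric triplet polymerase ribozyme was represented by a PCR-built, transcribed mutant library that underwent triplicate single-round in vitro selection with frozen incubation at −7 °C. Extended constructs were recovered by gel excision, streptavidin-bead capture and RT-PCR, and Illumina sequencing of input and output libraries kept genotypes with ≥10 input reads and ≥1 read per output. Fitness is the logarithm of genotype enrichment relative to wild-type enrichment, from inverse-variance-weighted replicate averages, with a logarithm base of 2.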

Polymerase ribozyme fitness (log ratio), -0.608:
C35U C95A

Polymerase ribozyme fitness (log ratio), -3.37:
C36A G84A

Polymerase ribozyme fitness (log ratio), -3.23:
C36A A121U

Polymerase ribozyme fitness (log ratio), -0.95:
C35U C96U U101C C118U

Polymerase ribozyme fitness (log ratio), -2.84:
C36U A52G G70U G84A

Polymerase ribozyme fitness (log ratio), 0.41:
C35U C54U U55A C116G

Polymerase ribozyme fitness (log ratio), -3.84:
C35U C87G

Polymerase ribozyme fitness (log ratio), -1:
C35U C54A G84A U146C

Polymerase ribozyme fitness (log ratio), -3.79:
C35U G133U

Polymerase ribozyme fitness (log ratio), -3.92:
C35U G92A A122G

Polymerase ribozyme fitness (log ratio), 1.25:
C35U A41G C85U G141U

Polymerase ribozyme fitness (log ratio), -2.34:
C35U A97G U134G U144G

Polymerase ribozyme fitness (log ratio), -4.2:
C35G A37C A52G G86U A97G

Polymerase ribozyme fitness (log ratio), -4.16:
C35G C63A C93U

Polymerase ribozyme fitness (log ratio), -4.01:
C36A A150U

Polymerase ribozyme fitness (log ratio), -2.73:
C35U G92C U135C

Polymerase ribozyme fitness (log ratio), ≤ -4.2:
C35U G68A C76G U148C
C35G A52C A60C
C35A G86U C87G A97U C105U A119U A150C
C35G U55A C72A C85U G133C U144C
C36U A60G C87A G88C G141C
C36A A66C
C35U C93A C103G
C36U C51U U55A G68C C72U A107U G126U G140U
C36A A40C G83C A106G U144A
C36A C75A C87G A106U C149G
C35U U144A C149G A150C
C35G A91U G92A C99A U102C A137U G143A
C36U A91U C125U
C35U C38A G83U G152A
C35U U78A G128A
C36G G94C C96U A150U
C35G U61C C96U
C35G G84A C93U C108G A137U
C36G U44G G71U C96A C108G G140C
C35G A49U G124C
C35U G50A A52C C57A A66U G88C A98U A115G G141A
C35U G58A A60U G65A G68C U82G G88C A97U
C36G C87U C149A
C36G C51U U61A G81U G86A C131G
C35G C72U C95U A120U U146G A150C
C35G U53C C87G G136U A137G
C35U U45A G58A G124U
C35G G48C U77G C85U A113U
C36U A60C C63U C103G
C35U A40C U45G G50A G88U A91G G140C
C36G C38U C85G A89C G92C G126U G136C A147C
C36A G70C C72A G84U C87U
C36U A49G A66U G83A C85G G88A C114U U146G
C35U U55G C57A A60C G88U C96A U104C U127A U134C G136C A142G U146A
C35G G58A G59U A60U A73C C116G C123A G140C
C35G A49G A64C G65C C93A
C35G G71A G94C
C35G C95U A115G U145A
C35U A47U U148A A150U
C36U A39C G94C A115G
C35U G50C C76A C79G C87G A142C G152U
C36A G84A C96A U127C U130C
C36A C96U A121C A150U
C35U C85G U139A
C35G G86U C116U C129U
C35U A91C G94A U104G
C35G C75A C95U U102G U151C
C35G A40C U55G C85U G92A U127G
C35U C76G A89U A97G
C36A C95U C96A A142G G152U
C36A A52G C85G C105G U146A
C36U C51A U55A
C35U U55A U56A G92A A110U U135A G152C
C35U A98G C99A U101C G141A
C36A U53A U55A C87U
C35U G42U C93G C95A A97U G141A
C35U G42C G68U C76U
C36A C43U A60C C108U
C36G G58U G59A C93U A107U U148C
C35U C93G A98G C105U G141C
C35A G86U A110U G141A
C36U C38A A91U C103A C116A
C35U G50A C87U U135G C149U
C36A G92A U101A
C35U G59U U102G U139A U144G C149G
C36G C54U G92A A110G G143A
C35G C63A G83C C85A
C36A C87G G100C C123U U130A A142C
C35U A39C C85A C116A
C36U A41C A49U G50C G58U C93U A122G
C35U A64C G86U G152A
C35G C54U U55A C95A U102G C114U U134A
C35U C51G G71U C131U
C36U A64G G140A A142C
C36A C96A
C35U C57A U61A G67A C95A C103A C116U
C36G C105G A119U A147G
C35U C76A C95U U148A
C36A C96G U104A C105A
C36A A41C C76A U102G C123A U148G
C35U C57G C85A G124A A138C U139A A142C U144G
C35U C38A A91G U144C
C35G C79A G83A A121U
C35G G74A U90A C95U
C35U U45A A49C G80U C85G A106U
C36A G83A U134A
C36A U61A U145A U148C
C36G A52C A64C C76U C96G C131U U139G U148G
C35G G50A U61G G124C
C36G A91U G92U U101G C125A U134G U135G
C35U G65C C87G C131A
C35G U55C C96G
C35U A49G C103U A137U
C35U U77A C149A
C35U U61A G86A C125G G141U
C35U A49C G59A C96A U148G A150C
C35U G59C G81A G83A A110G G133C
C35G A47C G70A C87G A115U G143U A150C
C35A U55A C87U G88U C99A C108U G124U A147U U148G U151A
C35U C69U U102G C108U C129G
C35G A49G C76U G86U G88A G117U
C36G U45G G59C A66G U109G G152U
C35G G94C U101C A115C
C36U A66U G88A U109A C129G
C35U C54A G83C C149A
C36U C43U U90A C108U
C35U A73U C75G C76G U90C
C36U A52C U55G G58C A64C C87A
C36A U55A G80U A147G A150C U151A
C35U A66G C85A A98G
C36G G65C A98G G128A
C35G U61A C87G A97G A98U
C36A C93U G100U
C35U A49C
C36A C93A C105G C125A
C36G G48C U102A U146G
C35U C76U G81U G140A U151G
C36A C87U G88C G124U
C35U C51G C54U C85G C108U C125A
C36G U56A C69G U139G A142U
C35U U44A A49C G74U G80A U109G A121G
C35U G42C C85U U127G
C35G C85G A89G A122G
C35G A47C C76U G80A C87A U111G C114G G140A
C36U C54A C95G C108U U109C C116U
C35U C54A U82A C99A C105U A138C
C35U U56A G68A A91U A110G G136U G143U
C36A C57U C95G G152A
C36U A52C C72A C85G C95G
C35U A60G C79U G86C C93G G94A U104C
C36A A40G C118U C129U A150G
C35G C57A A122G U148A G152U
C35U G48A C87A U101G
C36G A41U A66G A106G U144C U148C
C35U C43A G58U C75G C87G A121U C123U G133A
C35G A49C U90C A115C
C35G U44A C63A C95G C103A C116A U151C
C35U A49G G50A U77G C96U G143C A150G U151A
C36U A40G C108G G140A

Polymerase ribozyme fitness (log ratio), 0.0897:
C35U G136A

Polymerase ribozyme fitness (log ratio), -1.57:
C35U C149U

Polymerase ribozyme fitness (log ratio), -0.16:
C35U G58A C95U

Polymerase ribozyme fitness (log ratio), -0.573:
C35U C118U

Polymerase ribozyme fitness (log ratio), -3.99:
C35G A60C

Polymerase ribozyme fitness (log ratio), -4.18:
C35G C96U
C35G C87U

Polymerase ribozyme fitness (log ratio), -3.85:
C35U C57U C95G C99G A120U

Polymerase ribozyme fitness (log ratio), -3.66:
C35G G141C

Polymerase ribozyme fitness (log ratio), -0.972:
C35U U135A

Polymerase ribozyme fitness (log ratio), -4.12:
C35G G42A U130G C131A
C35U G74C C99U
